# Measured values: the supplement of paper PMC8728848
# This is one part of the list.
# B1: Gal 9 (Homo sapiens), O00182 (protein)
# chain: MAFSGSQAPYLSPAVPFSGTIQGGLQDGLQITVNGTVLSSSGTRFAVNFQTGFSGNDIAFHFNPRFEDGGYVVCNTRQNGSWGPEERKTHMPFQKGMPFDLCFLVQSSDFKVMVNGILFVQYFHRVPFHRVDTISVNGSVQLSYISFQNPRTVPVQPAFSTVPFSQPVCFPPRPRGRRQKPPGVWPANPAPITQTVIHTVQSAPGQMFSTPAIPPMMYPHPAYPMPFITTILGGLYPSKSILLSGTVLPSAQRFHINLCSGNHIAFHLNPRFDENAVVRNTQIDNSWGSEERSLPRKMPFVRGQSFSVWILCEAHCLKVAVDGQHLFEYYHRLRNLPTINRLEVGGDIQLTHVQT
# Key:
# Assay in all cases: glycan array binding signal (z-score within array); higher = stronger binding
# Conditions in all cases: glycan notation: IUPAC condensed, linker removed
# [1] = target: Neu5Ac(a2-3)Gal6S(b1-4)[Fuc(a1-3)]GlcNAc
# Method in brief: (§1)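 Glycan array data came from 3228 arrays in the Consortium for Functional Glycomics database, and only arrays with an available protein sequence were kept. Glycan names were put into IUPAC-condensed notation, and columns mapping to the same glycan were averaged. The binding signal is a within-array Z-score, averaged across arrays of one protein sequence run at different concentrations or buffers and across linkers. A negative Z-score can be read as non-binding.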
# [2] = target: Neu5Ac(a2-3)GalNAc
# Method in brief: as §1
# [3] = target: Neu5Ac(a2-3)GalNAc(b1-4)GlcNAc
# Method in brief: as §1
# [4] = target: Neu5Ac(a2-3)[GalNAc(b1-4)]Gal(b1-4)Glc
# Method in brief: as §1
# [5] = target: Neu5Ac(a2-3)[GalNAc(b1-4)]Gal(b1-4)GlcNAc
# Method in brief: as §1
# [6] = target: Neu5Ac(a2-3)[GalNAc(b1-4)]Gal(b1-4)GlcNAc(b1-3)GalNAc
# Method in brief: as §1
# [7] = target: Neu5Ac(a2-3)[Neu5Ac(a2-6)]GalNAc
# Method in brief: as §1
# [8] = target: Neu5Ac(a2-6)Gal
# Method in brief: as §1
# [9] = target: Neu5Ac(a2-6)Gal(b1-3)GlcNAc(b1-3)[Gal(b1-4)GlcNAc(b1-6)]Gal(b1-4)Glc
# Method in brief: as §1
# [10] = target: Neu5Ac(a2-6)Gal(b1-4)Glc
# Method in brief: as §1
# [11] = target: Neu5Ac(a2-6)Gal(b1-4)GlcNAc
# Method in brief: as §1
# [12] = target: Neu5Ac(a2-6)Gal(b1-4)GlcNAc(b1-2)Man
# Method in brief: as §1
# [13] = target: Neu5Ac(a2-6)Gal(b1-4)GlcNAc(b1-2)Man(a1-3)Man(b1-4)GlcNAc(b1-4)GlcNAc
# Method in brief: as §1
# [14] = target: Neu5Ac(a2-6)Gal(b1-4)GlcNAc(b1-2)Man(a1-3)[Gal(b1-4)GlcNAc(b1-2)Man(a1-6)]Man(b1-4)GlcNAc(b1-4)GlcNAc
# Method in brief: as §1
# [15] = target: Neu5Ac(a2-6)Gal(b1-4)GlcNAc(b1-2)Man(a1-3)[GlcNAc(b1-2)Man(a1-6)]Man(b1-4)GlcNAc(b1-4)GlcNAc
# Method in brief: as §1
# [16] = target: Neu5Ac(a2-6)Gal(b1-4)GlcNAc(b1-2)Man(a1-3)[GlcNAc(b1-2)Man(b1-4)GlcNAc(b1-2)Man(a1-6)]Man(b1-4)GlcNAc(b1-4)GlcNAc
# Method in brief: as §1
# [17] = target: Neu5Ac(a2-6)Gal(b1-4)GlcNAc(b1-2)Man(a1-3)[GlcNAc(b1-4)][Neu5Ac(a2-6)Gal(b1-4)GlcNAc(b1-2)Man(a1-6)]Man(b1-4)GlcNAc(b1-4)GlcNAc
# Method in brief: as §1
# [18] = target: Neu5Ac(a2-6)Gal(b1-4)GlcNAc(b1-2)Man(a1-3)[Man(a1-6)]Man(b1-4)GlcNAc(b1-4)GlcNAc
# Method in brief: as §1
# [19] = target: Neu5Ac(a2-6)Gal(b1-4)GlcNAc(b1-2)Man(a1-3)[Neu5Ac(a2-3)Gal(b1-4)GlcNAc(b1-2)Man(a1-6)]Man(b1-4)GlcNAc(b1-4)GlcNAc
# Method in brief: as §1
# [20] = target: Neu5Ac(a2-6)Gal(b1-4)GlcNAc(b1-2)Man(a1-3)[Neu5Ac(a2-6)Gal(b1-4)GlcNAc(b1-2)Man(a1-6)]Man(b1-4)GlcNAc(b1-4)GlcNAc
# Method in brief: as §1
# [21] = target: Neu5Ac(a2-6)Gal(b1-4)GlcNAc(b1-2)Man(a1-3)[Neu5Ac(a2-6)Gal(b1-4)GlcNAc(b1-2)Man(a1-6)]Man(b1-4)GlcNAc(b1-4)[Fuc(a1-6)]GlcNAc
# Method in brief: as §1
# [22] = target: Neu5Ac(a2-6)Gal(b1-4)GlcNAc(b1-2)Man(a1-6)Man(b1-4)GlcNAc(b1-4)GlcNAc
# Method in brief: as §1
# [23] = target: Neu5Ac(a2-6)Gal(b1-4)GlcNAc(b1-2)Man(a1-6)[Gal(b1-4)GlcNAc(b1-2)Man(a1-3)]Man(b1-4)GlcNAc(b1-4)GlcNAc
# Method in brief: as §1
# [24] = target: Neu5Ac(a2-6)Gal(b1-4)GlcNAc(b1-2)Man(a1-6)[GlcNAc(b1-2)Man(a1-3)]Man(b1-4)GlcNAc(b1-4)GlcNAc
# Method in brief: as §1
# [25] = target: Neu5Ac(a2-6)Gal(b1-4)GlcNAc(b1-2)Man(a1-6)[Man(a1-3)]Man(b1-4)GlcNAc(b1-4)GlcNAc
# Method in brief: as §1
# [26] = target: Neu5Ac(a2-6)Gal(b1-4)GlcNAc(b1-2)[Neu5Ac(a2-6)Gal(b1-4)GlcNAc(b1-4)]Man(a1-3)[GlcNAc(b1-4)][Neu5Ac(a2-6)Gal(b1-4)GlcNAc(b1-2)[Neu5Ac(a2-6)Gal(b1-4)GlcNAc(b1-6)]Man(a1-6)]Man(b1-4)GlcNAc(b1-4)GlcNAc
# Method in brief: as §1
# [27] = target: Neu5Ac(a2-6)Gal(b1-4)GlcNAc(b1-2)[Neu5Ac(a2-6)Gal(b1-4)GlcNAc(b1-4)]Man(a1-3)[GlcNAc(b1-4)][Neu5Ac(a2-6)Gal(b1-4)GlcNAc(b1-4)Man(a1-6)]Man(b1-4)GlcNAc(b1-4)GlcNAc
# Method in brief: as §1
# [28] = target: Neu5Ac(a2-6)Gal(b1-4)GlcNAc(b1-2)[Neu5Ac(a2-6)Gal(b1-4)GlcNAc(b1-6)]Man(a1-6)[Neu5Ac(a2-6)Gal(b1-4)GlcNAc(b1-2)Man(a1-3)][GlcNAc(b1-4)]Man(b1-4)GlcNAc(b1-4)GlcNAc
# Method in brief: as §1
# [29] = target: Neu5Ac(a2-6)Gal(b1-4)GlcNAc(b1-3)Gal(b1-3)GlcNAc
# Method in brief: as §1
# [30] = target: Neu5Ac(a2-6)Gal(b1-4)GlcNAc(b1-3)Gal(b1-4)GlcNAc
# Method in brief: as §1
# [31] = target: Neu5Ac(a2-6)Gal(b1-4)GlcNAc(b1-3)Gal(b1-4)GlcNAc(b1-2)Man(a1-3)[Neu5Ac(a2-6)Gal(b1-4)GlcNAc(b1-3)Gal(b1-4)GlcNAc(b1-2)Man(a1-6)]GalNAc
# Method in brief: as §1
# [32] = target: Neu5Ac(a2-6)Gal(b1-4)GlcNAc(b1-3)Gal(b1-4)GlcNAc(b1-3)Gal(b1-4)GlcNAc
# Method in brief: as §1
# [33] = target: Neu5Ac(a2-6)Gal(b1-4)GlcNAc(b1-3)Gal(b1-4)GlcNAc(b1-3)Gal(b1-4)GlcNAc(b1-2)Man(a1-3)[Neu5Ac(a2-6)Gal(b1-4)GlcNAc(b1-3)Gal(b1-4)GlcNAc(b1-3)Gal(b1-4)GlcNAc(b1-2)Man(a1-6)]GalNAc
# Method in brief: as §1
# [34] = target: Neu5Ac(a2-6)Gal(b1-4)GlcNAc(b1-3)Gal(b1-4)GlcNAc(b1-3)GalNAc
# Method in brief: as §1
# [35] = target: Neu5Ac(a2-6)Gal(b1-4)GlcNAc(b1-3)Gal(b1-4)GlcNAc(b1-3)[Neu5Ac(a2-6)Gal(b1-4)GlcNAc(b1-3)Gal(b1-4)GlcNAc(b1-6)]GalNAc
# Method in brief: as §1
# [36] = target: Neu5Ac(a2-6)Gal(b1-4)GlcNAc(b1-3)Gal(b1-4)GlcNAc(b1-6)[Gal(b1-3)]GalNAc
# Method in brief: as §1
# [37] = target: Neu5Ac(a2-6)Gal(b1-4)GlcNAc(b1-3)Gal(b1-4)[Fuc(a1-3)]GlcNAc(b1-3)Gal(b1-4)[Fuc(a1-3)]GlcNAc
# Method in brief: as §1
# [38] = target: Neu5Ac(a2-6)Gal(b1-4)GlcNAc(b1-3)GalNAc
# Method in brief: as §1
# [39] = target: Neu5Ac(a2-6)Gal(b1-4)GlcNAc(b1-3)[Neu5Ac(a2-6)Gal(b1-4)GlcNAc(b1-6)]GalNAc
# Method in brief: as §1
binder,measurement,setting,value
B1,glycan array binding signal (z-score),[1],-0.316
same,glycan array binding signal (z-score),[2],-0.322
same,glycan array binding signal (z-score),[3],-0.323
same,glycan array binding signal (z-score),[4],-0.302
same,glycan array binding signal (z-score),[5],-0.307
same,glycan array binding signal (z-score),[6],-0.293
same,glycan array binding signal (z-score),[7],-0.307
same,glycan array binding signal (z-score),[8],-0.312
same,glycan array binding signal (z-score),[9],-0.198
same,glycan array binding signal (z-score),[10],-0.318
same,glycan array binding signal (z-score),[11],-0.319
same,glycan array binding signal (z-score),[12],-0.291
same,glycan array binding signal (z-score),[13],-0.314
same,glycan array binding signal (z-score),[14],0.042
same,glycan array binding signal (z-score),[15],-0.289
same,glycan array binding signal (z-score),[16],0.913
same,glycan array binding signal (z-score),[17],-0.306
same,glycan array binding signal (z-score),[18],-0.315
same,glycan array binding signal (z-score),[19],-0.259
same,glycan array binding signal (z-score),[20],-0.286
same,glycan array binding signal (z-score),[21],-0.278
same,glycan array binding signal (z-score),[22],-0.318
same,glycan array binding signal (z-score),[23],0.175
same,glycan array binding signal (z-score),[24],-0.323
same,glycan array binding signal (z-score),[25],-0.338
same,glycan array binding signal (z-score),[26],-0.287
same,glycan array binding signal (z-score),[27],-0.298
same,glycan array binding signal (z-score),[28],-0.293
same,glycan array binding signal (z-score),[29],0.704
same,glycan array binding signal (z-score),[30],0.148
same,glycan array binding signal (z-score),[31],5.41
same,glycan array binding signal (z-score),[32],0.358
same,glycan array binding signal (z-score),[33],0.794
same,glycan array binding signal (z-score),[34],0.8
same,glycan array binding signal (z-score),[35],0.144
same,glycan array binding signal (z-score),[36],0.213
same,glycan array binding signal (z-score),[37],-0.306
same,glycan array binding signal (z-score),[38],-0.319
same,glycan array binding signal (z-score),[39],-0.275
